{
  "source": "the supplement of paper PMC8728848",
  "binders": {"B1": {"name": "MAA (Maackia amurensis), P0DKL3 (protein)", "chain": "MATSNSKPTQVLLATFLTFFFLLLNNVNSSDELSFTINNFVPNEADLLFQGEASVSSTGVLQLTRVENGQPQKYSVGRALYAAPVRIWDNTTGSVASFSTSFTFVVKAPNPDITSDGLAFYLAPPDSQIPSGSVSKYLGLFNNSNSDSSNQIVAVELDTYFAHSYDPWDPNYRHIGIDVNGIESIKTVQWDWINGGVAFATITYLAPNKTLIASLVYPSNQTTFSVAASVDLKEILPEWVRVGFSAATGYPTEVETHDVLSWSFTSTLEANCDAATENNVHIARYTA"}},
  "assay_in_all_cases": "glycan array binding signal (z-score within array); higher = stronger binding",
  "details_in_all_cases": "glycan notation: IUPAC condensed, linker removed",
  "key": {"GlcNAc(b1-3)Fuc": {"target": "GlcNAc(b1-3)Fuc", "summary_of_the_method": "(§1)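 Negative Z-scores can be read as non-binding. The Z-score is calculated within each array and then averaged across arrays of one protein sequence at different concentrations or buffers and across linkers. Arrays, 3228 in all, were curated from the Consortium for Functional Glycomics database and kept only where the protein sequence was available.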"}, "GlcNAc(b1-3)Gal": {"target": "GlcNAc(b1-3)Gal", "summary_of_the_method": "as §1"}, "[1]": {"target": "GlcNAc(b1-3)Gal(b1-3)GalNAc", "summary_of_the_method": "as §1"}, "GlcNAc(b1-3)Gal(b1-4)Glc": {"target": "GlcNAc(b1-3)Gal(b1-4)Glc", "summary_of_the_method": "as §1"}, "[2]": {"target": "GlcNAc(b1-3)Gal(b1-4)GlcNAc", "summary_of_the_method": "as §1"}, "[3]": {"target": "GlcNAc(b1-3)Gal(b1-4)GlcNAc(b1-2)Man(a1-3)[GlcNAc(b1-3)Gal(b1-4)GlcNAc(b1-2)Man(a1-6)]Man(b1-4)GlcNAc(b1-4)GlcNAc", "summary_of_the_method": "as §1"}, "[4]": {"target": "GlcNAc(b1-3)Gal(b1-4)GlcNAc(b1-2)Man(a1-3)[GlcNAc(b1-3)Gal(b1-4)GlcNAc(b1-2)Man(a1-6)]Man(b1-4)GlcNAc(b1-4)[Fuc(a1-6)]GlcNAc", "summary_of_the_method": "as §1"}, "[5]": {"target": "GlcNAc(b1-3)Gal(b1-4)GlcNAc(b1-2)[GlcNAc(b1-3)Gal(b1-4)GlcNAc(b1-6)]Man(a1-6)[GlcNAc(b1-3)Gal(b1-4)GlcNAc(b1-2)Man(a1-3)]Man(b1-4)GlcNAc(b1-4)GlcNAc", "summary_of_the_method": "as §1"}, "[6]": {"target": "GlcNAc(b1-3)Gal(b1-4)GlcNAc(b1-3)Gal(b1-4)GlcNAc", "summary_of_the_method": "as §1"}, "[7]": {"target": "GlcNAc(b1-3)Gal(b1-4)GlcNAc(b1-3)Gal(b1-4)GlcNAc(b1-2)Man(a1-3)[GlcNAc(b1-3)Gal(b1-4)GlcNAc(b1-3)Gal(b1-4)GlcNAc(b1-2)Man(a1-6)]Man(b1-4)GlcNAc(b1-4)GlcNAc", "summary_of_the_method": "as §1"}, "[8]": {"target": "GlcNAc(b1-3)Gal(b1-4)GlcNAc(b1-3)Gal(b1-4)GlcNAc(b1-2)Man(a1-3)[GlcNAc(b1-3)Gal(b1-4)GlcNAc(b1-3)Gal(b1-4)GlcNAc(b1-2)Man(a1-6)]Man(b1-4)GlcNAc(b1-4)[Fuc(a1-6)]GlcNAc", "summary_of_the_method": "as §1"}, "[9]": {"target": "GlcNAc(b1-3)Gal(b1-4)GlcNAc(b1-3)Gal(b1-4)GlcNAc(b1-2)[GlcNAc(b1-3)Gal(b1-4)GlcNAc(b1-3)Gal(b1-4)GlcNAc(b1-6)]Man(a1-6)[GlcNAc(b1-3)Gal(b1-4)GlcNAc(b1-3)Gal(b1-4)GlcNAc(b1-2)Man(a1-3)]Man(b1-4)GlcNAc(b1-4)[Fuc(a1-6)]GlcNAc", "summary_of_the_method": "as §1"}, "[10]": {"target": "GlcNAc(b1-3)Gal(b1-4)GlcNAc(b1-3)Gal(b1-4)GlcNAc(b1-3)Gal(b1-4)GlcNAc(b1-2)Man(a1-3)[GlcNAc(b1-3)Gal(b1-4)GlcNAc(b1-3)Gal(b1-4)GlcNAc(b1-3)Gal(b1-4)GlcNAc(b1-2)Man(a1-6)]Man(b1-4)GlcNAc(b1-4)GlcNAc", "summary_of_the_method": "as §1"}, "[11]": {"target": "GlcNAc(b1-3)Gal(b1-4)GlcNAc(b1-3)Gal(b1-4)GlcNAc(b1-3)Gal(b1-4)GlcNAc(b1-2)Man(a1-3)[GlcNAc(b1-3)Gal(b1-4)GlcNAc(b1-3)Gal(b1-4)GlcNAc(b1-3)Gal(b1-4)GlcNAc(b1-2)Man(a1-6)]Man(b1-4)GlcNAc(b1-4)[Fuc(a1-6)]GlcNAc", "summary_of_the_method": "as §1"}, "[12]": {"target": "GlcNAc(b1-3)Gal(b1-4)GlcNAc(b1-3)Gal(b1-4)GlcNAc(b1-3)Gal(b1-4)GlcNAc(b1-2)[GlcNAc(b1-3)Gal(b1-4)GlcNAc(b1-3)Gal(b1-4)GlcNAc(b1-3)Gal(b1-4)GlcNAc(b1-6)]Man(a1-6)[GlcNAc(b1-3)Gal(b1-4)GlcNAc(b1-3)Gal(b1-4)GlcNAc(b1-3)Gal(b1-4)GlcNAc(b1-2)Man(a1-3)]Man(b1-4)GlcNAc(b1-4)[Fuc(a1-6)]GlcNAc", "summary_of_the_method": "as §1"}, "[13]": {"target": "GlcNAc(b1-3)Gal(b1-4)GlcNAc(b1-3)Gal(b1-4)GlcNAc(b1-3)Gal(b1-4)GlcNAc(b1-3)Gal(b1-4)GlcNAc(b1-2)Man(a1-3)[GlcNAc(b1-3)Gal(b1-4)GlcNAc(b1-3)Gal(b1-4)GlcNAc(b1-3)Gal(b1-4)GlcNAc(b1-3)Gal(b1-4)GlcNAc(b1-2)Man(a1-6)]Man(b1-4)GlcNAc(b1-4)GlcNAc", "summary_of_the_method": "as §1"}, "[14]": {"target": "GlcNAc(b1-3)Gal(b1-4)GlcNAc(b1-3)Gal(b1-4)GlcNAc(b1-3)Gal(b1-4)GlcNAc(b1-3)Gal(b1-4)GlcNAc(b1-2)Man(a1-3)[GlcNAc(b1-3)Gal(b1-4)GlcNAc(b1-3)Gal(b1-4)GlcNAc(b1-3)Gal(b1-4)GlcNAc(b1-3)Gal(b1-4)GlcNAc(b1-2)Man(a1-6)]Man(b1-4)GlcNAc(b1-4)[Fuc(a1-6)]GlcNAc", "summary_of_the_method": "as §1"}, "[15]": {"target": "GlcNAc(b1-3)Gal(b1-4)GlcNAc(b1-3)Gal(b1-4)GlcNAc(b1-3)Gal(b1-4)GlcNAc(b1-3)Gal(b1-4)GlcNAc(b1-2)[GlcNAc(b1-3)Gal(b1-4)GlcNAc(b1-3)Gal(b1-4)GlcNAc(b1-3)Gal(b1-4)GlcNAc(b1-3)Gal(b1-4)GlcNAc(b1-6)]Man(a1-6)[GlcNAc(b1-3)Gal(b1-4)GlcNAc(b1-3)Gal(b1-4)GlcNAc(b1-3)Gal(b1-4)GlcNAc(b1-3)Gal(b1-4)GlcNAc(b1-2)Man(a1-3)]Man(b1-4)GlcNAc(b1-4)[Fuc(a1-6)]GlcNAc", "summary_of_the_method": "as §1"}, "[16]": {"target": "GlcNAc(b1-3)Gal(b1-4)GlcNAc(b1-3)Gal(b1-4)GlcNAc(b1-3)GalNAc", "summary_of_the_method": "as §1"}, "[17]": {"target": "GlcNAc(b1-3)Gal(b1-4)GlcNAc(b1-3)GalNAc", "summary_of_the_method": "as §1"}, "[18]": {"target": "GlcNAc(b1-3)Gal(b1-4)GlcNAc(b1-3)[GlcNAc(b1-3)Gal(b1-4)GlcNAc(b1-3)]GalNAc", "summary_of_the_method": "as §1"}, "[19]": {"target": "GlcNAc(b1-3)Gal(b1-4)GlcNAc(b1-6)[Gal(b1-3)]GalNAc", "summary_of_the_method": "as §1"}, "[20]": {"target": "GlcNAc(b1-3)Gal(b1-4)GlcNAc(b1-6)[GlcNAc(b1-3)Gal(b1-3)]GalNAc", "summary_of_the_method": "as §1"}},
  "note": "The list shows a part of the results.",
  "data": [
    {"binder": "B1", "values": [
      {"measurement": "glycan array binding signal (z-score)", "setting": "GlcNAc(b1-3)Fuc", "value": -0.227},
      {"measurement": "glycan array binding signal (z-score)", "setting": "GlcNAc(b1-3)Gal", "value": -0.192},
      {"measurement": "glycan array binding signal (z-score)", "setting": "[1]", "value": -0.22},
      {"measurement": "glycan array binding signal (z-score)", "setting": "GlcNAc(b1-3)Gal(b1-4)Glc", "value": -0.196},
      {"measurement": "glycan array binding signal (z-score)", "setting": "[2]", "value": -0.201},
      {"measurement": "glycan array binding signal (z-score)", "setting": "[3]", "value": -0.238},
      {"measurement": "glycan array binding signal (z-score)", "setting": "[4]", "value": -0.164},
      {"measurement": "glycan array binding signal (z-score)", "setting": "[5]", "value": 0.062},
      {"measurement": "glycan array binding signal (z-score)", "setting": "[6]", "value": -0.213},
      {"measurement": "glycan array binding signal (z-score)", "setting": "[7]", "value": 0.125},
      {"measurement": "glycan array binding signal (z-score)", "setting": "[8]", "value": -0.178},
      {"measurement": "glycan array binding signal (z-score)", "setting": "[9]", "value": 0.435},
      {"measurement": "glycan array binding signal (z-score)", "setting": "[10]", "value": -0.047},
      {"measurement": "glycan array binding signal (z-score)", "setting": "[11]", "value": -0.098},
      {"measurement": "glycan array binding signal (z-score)", "setting": "[12]", "value": 0.282},
      {"measurement": "glycan array binding signal (z-score)", "setting": "[13]", "value": 0.238},
      {"measurement": "glycan array binding signal (z-score)", "setting": "[14]", "value": -0.256},
      {"measurement": "glycan array binding signal (z-score)", "setting": "[15]", "value": -0.091},
      {"measurement": "glycan array binding signal (z-score)", "setting": "[16]", "value": -0.057},
      {"measurement": "glycan array binding signal (z-score)", "setting": "[17]", "value": -0.227},
      {"measurement": "glycan array binding signal (z-score)", "setting": "[18]", "value": -0.118},
      {"measurement": "glycan array binding signal (z-score)", "setting": "[19]", "value": -0.247},
      {"measurement": "glycan array binding signal (z-score)", "setting": "[20]", "value": -0.304}
    ]}
  ]
}
